Test results reported in the supplement of paper PMC10338343.
± gives the standard deviation. In all, about 6,600 sequences were measured (“pre-steady-state target cleavage rate”: median about 0.07, highest 2% from about 0.72 on). This is a selection; strong and weak results do not stand in their true shares.

Each sequence was assayed on MIWI (PIWIL1) piRISC loaded with Kctd7 piRNA (30 nt) (assay: pre-steady-state target cleavage rate (min^-1); MIWI and MILI are mouse PIWI proteins and EfPiwi is from a freshwater sponge; tags in brackets are library labels; higher = faster piRNA-guided slicing of the target). Conditions: guide: Kctd7 piRNA 5'p-UGUUAAUCUCUCAGAGAAGGUGACAGUGAU; auxiliary factor: 500 nM mouse GTSF1.
In short: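 Cleave-'n-Seq: 1 nM active affinity-purified piRISC with one synthetic guide and 0.1 nM transcribed, DNA-blocked target RNA library were mixed, with or without 500 nM GTSF1 partner protein, in HEPES–potassium acetate buffer at 33 °C for 0–8 or 0–960 min. Uncleaved targets were sequenced and normalised to depth and to weakly complementary targets, three trials were pooled, and k3 was capped at 0.0001 min^-1. The pre-steady-state cleavage rate was fitted […].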

How did the “pre-steady-state target cleavage rate” value turn out when UUCACUGUCACCUUCUGUCAGAGAUUAACA was run?
Its value is 0.0135 ± 0.0046.

How did the “pre-steady-state target cleavage rate” value turn out when UAGUCUGUCACCUUCUCUGAGAGUAUAUGA was run?
Its value is 0.0111 ± 0.0053.

With UAGUCUGUCACCUUCUGUGAGACAUUAACA as the sequence, how does the “pre-steady-state target cleavage rate” value read?
The value was 0.141 ± 0.02.

UACACCUGUCACCUUCUCUGAGAGAUUAACA was tested. Which “pre-steady-state target cleavage rate” value did it give?
Its value is 0.79 ± 0.051.

With UAGACGUGUCACCUUCUCUGAGAGAUUAACA as the sequence, how does the “pre-steady-state target cleavage rate” value read?
Its value is 0.649 ± 0.039.

For UAGUGACAGUGCUUCUCUGAGAGAUUAUCA, which “pre-steady-state target cleavage rate” value is on record?
Its value is 0.0119 ± 0.0035.

How did the “pre-steady-state target cleavage rate” value turn out when UAGUGACUCACCUUCCCUGAGAGAUUAACA was run?
Its value is 0.179 ± 0.033.

UAGUGACUCACCAUCUCUGAGACAUUAACA was tested. Which “pre-steady-state target cleavage rate” value did it give?
Its value is 0.0411 ± 0.005.

Which “pre-steady-state target cleavage rate” value does the source give for UACACUGUGACCUUCUCUGAGAGAUUAUGA here?
The value was 0.0523 ± 0.012.

UUCACUGUCACCUUUCUGAGAGAUUAACA was tested. Which “pre-steady-state target cleavage rate” value did it give?
The value was 0.506 ± 0.026.

How did the “pre-steady-state target cleavage rate” value turn out when UAGUGUGUCACCUUGUCUGAGAGAUUAAGA was run?
The value was 0.00865 ± 0.005.

UAGACUGUCACGUUCACUGAGAGAUUAACA was tested. Which “pre-steady-state target cleavage rate” value did it give?
The value was 0.506 ± 0.028.

With UAGUGACUGACCUUCUCUGUGAGAUUAACA as the sequence, how does the “pre-steady-state target cleavage rate” value read?
Its value is 0.055 ± 0.0077.

How did the “pre-steady-state target cleavage rate” value turn out when UACACUGUCACCUUCUCUGAGAGAUAAAGA was run?
Its value is 0.0476 ± 0.015.

Which “pre-steady-state target cleavage rate” value does the source give for UAGUGACUCUCCUUCUCUGAGAGUUUAACA here?
Its value is 0.035 ± 0.007.

For AUCACUGUCACCUUCUCUGAGAGAUGAACA, which “pre-steady-state target cleavage rate” value is on record?
The value was 0.186 ± 0.03.

How did the “pre-steady-state target cleavage rate” value turn out when UAGUGUUGUCACCUUCUCUGAGAGAUUAACA was run?
The value was 0.629 ± 0.029.

With UAGUCUGUCACCUUCUCUGAGAGUUUAACA as the sequence, how does the “pre-steady-state target cleavage rate” value read?
Its value is 0.365 ± 0.053.

How did the “pre-steady-state target cleavage rate” value turn out when UAGUCUGUCACCUUCUCUCAGUGAUUAACA was run?
The value was 0.00581 ± 0.0033.

With UUCACUGUCACCUUCUCUGAGACAUUUACA as the sequence, how does the “pre-steady-state target cleavage rate” value read?
Its value is 0.067 ± 0.018.

For UACACUGUCACCUUCUCUGAGAGAUCAACA, which “pre-steady-state target cleavage rate” value is on record?
The value was 0.26 ± 0.038.

With UUCACUGUGACCUUCUCUGAGAGAUUAUGA as the sequence, how does the “pre-steady-state target cleavage rate” value read?
The value was 0.119 ± 0.021.

Which “pre-steady-state target cleavage rate” value does the source give for UAGUCUGUCACCUUCUCUGUGACAUUAACA here?
Its value is 0.0475 ± 0.0087.

For UACACUGUCACGUUCUCUGAGAGUUUAACA, which “pre-steady-state target cleavage rate” value is on record?
Its value is 0.119 ± 0.017.

How did the “pre-steady-state target cleavage rate” value turn out when AUCACUGUCACCUUCUCUGUCAGAUAUUGA was run?
The value was 0.0149 ± 0.0076.

How did the “pre-steady-state target cleavage rate” value turn out when UAGACUGUCACGUUCUCUGAGAGAUAAACA was run?
The value was 0.19 ± 0.024.

With UAGUGACAGUCUCUUCUCUGAGAGAUUAACA as the sequence, how does the “pre-steady-state target cleavage rate” value read?
Its value is 0.25 ± 0.034.

With UAGUGUGUCACCAUCUCAGAGAGAUUAACA as the sequence, how does the “pre-steady-state target cleavage rate” value read?
Its value is 0.106 ± 0.011.

How did the “pre-steady-state target cleavage rate” value turn out when UAGUGACUCACCUUCACUGAGAGAUUUACA was run?
The value was 0.219 ± 0.038.

For UAGUGACAGUGCCUUCUCUGAGAGAUUAACA, which “pre-steady-state target cleavage rate” value is on record?
The value was 0.356 ± 0.034.

Which “pre-steady-state target cleavage rate” value does the source give for UAGUGACAGACCUUCUCAGAGAGAUUAAGA here?
Its value is 0.00725 ± 0.0031.

How did the “pre-steady-state target cleavage rate” value turn out when UAGUGUGUCACCUUCACUGUGAGAUUAACA was run?
Its value is 0.108 ± 0.0088.

UACACAGUCACCUUCUCUGAGAGUUUAACA was tested. Which “pre-steady-state target cleavage rate” value did it give?
Its value is 0.515 ± 0.11.

With UAGUCCGUCACCUUCUCUGAGAGAUUAACA as the sequence, how does the “pre-steady-state target cleavage rate” value read?
Its value is 0.662 ± 0.036.

For UAGUGACAGUGCUUCUGUGAGAGAUUAUCA, which “pre-steady-state target cleavage rate” value is on record?
The value was 0.00492 ± 0.0043.

For UAGUGACUCACCUUCUCUCAGAGAUUAACA, which “pre-steady-state target cleavage rate” value is on record?
Its value is 0.0561 ± 0.0067.

How did the “pre-steady-state target cleavage rate” value turn out when UACACUGUCACCUCUCUCUGAGAGAUUAACA was run?
Its value is 0.425 ± 0.029.

With UAGUGACACACCUUCUCUGAGAGACUUAACA as the sequence, how does the “pre-steady-state target cleavage rate” value read?
The value was 0.106 ± 0.017.

How did the “pre-steady-state target cleavage rate” value turn out when UAGUGACAGACCUUCUGUGAGAGAUUAACA was run?
Its value is 0.0705 ± 0.013.

Which “pre-steady-state target cleavage rate” value does the source give for UAGUGACAGUGGUUCUCUGUCUGAUUAACA here?
Its value is < 0.0001.
